From the supplement of paper PMC9446081
Screen size: about 39,000 compounds; about 220 (0.56%) showed activity. This is one part of the list.

Each compound was assayed on Escherichia coli K-12 BW25113 (assay: relative growth (OD600 normalised to plate interquartile mean) (fraction); higher = less growth inhibition, active = 0.2 or less). Conditions: 50 µM; LB; incubation time: overnight (16-24 h).
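Note: static incubation at 37 °C against the wild-type strain, values averaged over two biological replicates.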

Structure (SMILES) | relative growth
O=C(O)c1ccc2[nH]cnc2n1 | inactive: 1.01
CCCNC(=O)N1C[C@H](C)[C@@H](OC)CN(C)C(=O)c2ccc(NS(=O)(=O)CC(F)(F)F)cc2OC[C@@H]1C | inactive: 0.985
C[C@H]1CN([C@@H](C)CO)C(=O)CCCn2nncc2CO[C@@H]1CN(C)S(=O)(=O)c1ccc(-n2cccn2)cc1 | inactive: 0.852
COc1cccc(CNC(=O)C[C@H]2C=C[C@H](NC(=O)C3CCOCC3)[C@H](CO)O2)c1 | inactive: 0.99
CCS(=O)(=O)NCC[C@@H]1CC[C@@H](NS(=O)(=O)c2cccc(F)c2)[C@@H](CO)O1 | inactive: 1.01
C[C@H](CO)N1C[C@H](C)[C@@H](CN(C)C(=O)c2ccccc2)Oc2cc(C#CC3(O)CCCC3)ccc2S1(=O)=O | inactive: 1
C[C@@H]1CCCCO[C@H](CN(C)Cc2ccccc2)[C@@H](C)CN([C@@H](C)CO)C(=O)c2cc(NC(=O)CCCCCC(=O)Nc3ccccc3N)ccc2O1 | inactive: 0.998
COC(=O)C[C@@H]1CC[C@H]2[C@H](COc3ccc(NS(=O)(=O)c4ccccc4Cl)cc3C(=O)N2C)O1 | inactive: 0.998
CO[C@H]1CN(C)C(=O)c2cc(NC(=O)C3CCOCC3)ccc2OC[C@H](C)N(Cc2cccnc2)C[C@H]1C | inactive: 0.985
C[C@@H]1CN([C@H](C)CO)C(=O)c2cc(C#Cc3cccc(F)c3)cnc2O[C@H]1CN(C)CC1CCOCC1 | inactive: 0.984
COc1ccc(NC(=O)N(C)C[C@H]2OCCCC[C@@H](C)Oc3ccc(NS(=O)(=O)c4ccc(Cl)cc4)cc3C(=O)N([C@@H](C)CO)C[C@@H]2C)cc1 | inactive: 0.998
CC(=O)OC1(C(C)=O)CCC2C3C=C(C)C4=CC(=O)CCC4(C)C3CCC21C (stereo not drawn) | inactive: 0.977
Cc1noc(C)c1NC(=O)Nc1ccc2c(c1)C(=O)N([C@@H](C)CO)C[C@@H](C)[C@H](CN(C)S(=O)(=O)c1ccccc1)O2 | inactive: 0.999
Cc1noc(C)c1NC(=O)N(C)C[C@@H]1OCCCC[C@@H](C)Oc2ccc(NS(=O)(=O)c3ccc(F)cc3)cc2C(=O)N([C@@H](C)CO)C[C@H]1C | inactive: 0.983
CN1CCCN(C[C@@H]2CN(C(=O)Cn3cccn3)C[C@@H]2CO)CC1 | inactive: 1
COCC(=O)Nc1ccc2c(c1)C(=O)N(C)C[C@H](OC)[C@H](C)CN(C(=O)Cc1cccnc1)[C@@H](C)CO2 | inactive: 0.995
C[C@@H]1CN([C@@H](C)CO)C(=O)c2cccc(NS(=O)(=O)c3ccc(Cl)cc3)c2O[C@H]1CN(C)C(=O)Nc1ccc(C(F)(F)F)cc1 | inactive: 1.01
Cc1ccccc1/C=C(\C#N)c1nc(-c2ccccc2)cs1 | inactive: 1.01
O=C(C[C@H]1C[C@@H]2c3cc(NC(=O)Nc4ccccc4)ccc3O[C@@H]2[C@@H](CO)O1)NCCN1CCCCC1 | inactive: 0.994
C[C@@H]1CCCCO[C@@H](CN(C)C(=O)c2ccccc2)[C@@H](C)CN([C@@H](C)CO)C(=O)c2cc(NC(=O)Nc3ccc4c(c3)OCO4)ccc2O1 | inactive: 0.996
OCC1c2ccccc2-c2ccccc21 | inactive: 0.986
O=C(O)C1(O)CC(O)C(O)C(O)C1 (stereo not drawn) | inactive: 0.994

Structure (SMILES) | relative growth
Cc1csc2ncnc(Cl)c12 | inactive: 0.974
COCC#Cc1ccc2c(c1)O[C@H](CN(C)S(=O)(=O)c1cccc(F)c1)[C@H](C)CN([C@H](C)CO)S2(=O)=O | inactive: 1.02
C[C@@H]1CN([C@H](C)CO)S(=O)(=O)c2ccc(C#C[C@@H](C)O)cc2O[C@@H]1CN(C)C | inactive: 0.978
O=C(NC1CC1)c1n[nH]c(=O)c2ccccc12 | inactive: 1.02
C=CC[C@]1(C(=O)NCCN2CCOCC2)COC(c2ccc(OCCCO)cc2)=N1 | inactive: 0.92
C[C@H](CO)N1C[C@H](C)[C@@H](CN(C)CC2CC2)Oc2ccc(NS(=O)(=O)c3ccccc3)cc2CC1=O | inactive: 0.984
C[C@@H]1CN([C@H](C)CO)C(=O)c2cccc(NS(=O)(=O)c3ccc(Cl)cc3)c2O[C@H]1CN(C)Cc1ccc(-c2ccccc2)cc1 | inactive: 0.922
Cc1ccc(S(=O)(=O)Nc2ccc3c(c2)C(=O)N([C@@H](C)CO)C[C@H](C)[C@@H](CN(C)C(=O)c2ccccc2)OCCCC[C@H](C)O3)cc1 | inactive: 1
C[C@@H]1CN([C@@H](C)CO)C(=O)c2cc(NC(=O)Nc3ccc(C(F)(F)F)cc3)ccc2O[C@@H]1CN(C)Cc1ccc(Oc2ccccc2)cc1 | inactive: 1.01
Cc1cnc(CNC(=O)[C@H]2C[C@H]3[C@@H](CCN3S(C)(=O)=O)O2)cn1 | inactive: 1
C[C@@H]1CN([C@@H](C)CO)C(=O)c2cc(NS(=O)(=O)c3ccc(Cl)cc3)ccc2O[C@@H](C)CCCCO[C@@H]1CN(C)S(=O)(=O)c1ccc(Cl)cc1 | inactive: 1.02
O=C1C(CCC(O)c2ccc(F)cc2)C(c2ccc(O)cc2)N1c1ccc(F)cc1 (stereo not drawn) | inactive: 0.88
NC(Cc1c[nH]c2ccccc12)C(=O)O (stereo not drawn) | inactive: 1.06
CNC[C@H]1Oc2cc(C#CCN(C)C)ccc2S(=O)(=O)N([C@H](C)CO)C[C@@H]1C | inactive: 1.02
CN1C(=O)N(C)[C@H]2NC(=O)N[C@@H]21 | inactive: 0.993
C[C@H]1CN([C@@H](C)CO)S(=O)(=O)c2ccc(C#CC3CCCC3)cc2O[C@@H]1CN(C)Cc1cncnc1 | inactive: 1
COC(=O)c1c(CC[C@@H](CO)NC(=O)N[C@H](Cn2cc(-c3cncn3C)nn2)C(C)C)oc(C(C)=O)c1C(=O)OC | inactive: 1
O=C1c2ccccc2[C@@]2(Cc3ccccc3N(CC(F)(F)F)C2=O)[C@H](c2ccc(CO)cc2)N1Cc1ccccc1 | inactive: 1.01
C[C@H](CO)N1C[C@H](C)[C@H](CN(C)C(=O)C2CCCCC2)OCCCC[C@H](C)Oc2ccc(NS(=O)(=O)c3ccc(F)cc3)cc2C1=O | inactive: 0.995
CCC(=O)N1C[C@]2(C1)CN([C@@H](CO)c1[nH]c3cc(ccc3c12)OC)C(=O)CN1CCOCC1 | inactive: 1.02
C[C@@H]1CCCCO[C@@H](CN(C)Cc2ccc3c(c2)OCO3)[C@@H](C)CN([C@H](C)CO)C(=O)c2cc(NC(=O)C3CCCCC3)ccc2O1 | inactive: 1.01
